# Several values for one entry are separate records, joined by “and”; a condition that tells them apart may be missing. Equal values may be shown once. Screen size: about 270,000 compounds; about 5,800 (2.1%) were called active. Inconclusive means that the source gave no clear call. Such entries were picked first, then a sample of the others. Calls come from the whole dose curve; as a rule, active = well fitted inhibition curve with a large enough effect; inconclusive = small, poorly fitted or top-dose-only effect; inactive = flat fitted curve, though single readings scatter. Where the call is inconclusive, the potency comes from a doubtful curve fit.
# Target: Microtubule-associated protein tau (Homo sapiens) (UniProt P10636)
# Experiment: qHTS for Inhibitors of Tau Fibril Formation, Thioflavin T Binding; note: nearly all actives have a fitted effect of over 55% in size
# Conditions: recombinant tau K18 P301L (four-repeat tau fragment), heparin-induced fibrillization, ThT fluorescence; series mostly up to 57.4 µM; activity, negative = inhibition: at the top concentration
# Summary of the method: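 Aggregation was driven by heparin (20 uM final) acting on recombinant tau […] bearing P301L in 100 mM sodium acetate pH 7; fibrils were detected with Thioflavin T.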
# % is set by controls: 0 for no effect and ±100 for the full control effect; potency is the fitted concentration of half-maximal effect; tags give direction and shape of the fitted curve.
# Sequence of UniProt P10636 (P10636 whole entry, looked up): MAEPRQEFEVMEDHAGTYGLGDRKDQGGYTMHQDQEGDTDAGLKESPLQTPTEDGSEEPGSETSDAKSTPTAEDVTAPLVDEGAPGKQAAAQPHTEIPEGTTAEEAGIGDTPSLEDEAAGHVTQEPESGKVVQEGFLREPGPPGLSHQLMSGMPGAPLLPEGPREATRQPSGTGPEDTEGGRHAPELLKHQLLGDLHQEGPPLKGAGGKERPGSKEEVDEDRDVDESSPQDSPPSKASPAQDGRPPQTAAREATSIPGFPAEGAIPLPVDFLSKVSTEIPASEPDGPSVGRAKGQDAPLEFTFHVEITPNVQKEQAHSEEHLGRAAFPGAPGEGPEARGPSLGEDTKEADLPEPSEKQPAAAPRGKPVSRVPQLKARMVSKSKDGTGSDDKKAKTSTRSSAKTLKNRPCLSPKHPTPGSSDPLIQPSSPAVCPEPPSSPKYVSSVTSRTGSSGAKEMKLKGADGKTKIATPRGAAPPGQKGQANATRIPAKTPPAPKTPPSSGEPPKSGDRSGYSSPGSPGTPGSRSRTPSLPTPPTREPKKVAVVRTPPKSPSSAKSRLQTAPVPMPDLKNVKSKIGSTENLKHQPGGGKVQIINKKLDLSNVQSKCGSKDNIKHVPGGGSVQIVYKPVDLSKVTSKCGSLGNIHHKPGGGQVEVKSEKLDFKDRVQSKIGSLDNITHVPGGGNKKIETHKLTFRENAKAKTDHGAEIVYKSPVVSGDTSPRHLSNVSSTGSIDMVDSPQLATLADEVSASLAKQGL
Compound,Potency,"activity, negative = inhibition"
CC1CC(C)(C)N2C(=O)C3(Nc4ccccc4S3)c3cccc1c32 (centres undefined),"inconclusive: 44.7 µM [inhibitor, partial curve]",–
COc1cc(/C=N/NC(=S)NCCN2CCOCC2)ccc1O,–,inactive: -2.71%
Cc1ccc2ncc(C(=O)c3ccc(C)c(C)c3)c(S(=O)(=O)c3ccccc3)c2c1,–,inactive: -4.03%
CCOc1cccc(C2c3c(oc4ccc(F)cc4c3=O)C(=O)N2c2cc(C)ccn2)c1 (centres undefined),–,inactive: -11.8%
NNc1ccc(Cc2ccc(Cl)cc2Cl)nn1,"inconclusive: 28.2 µM [inhibitor, single point]",–
CCc1nc2ccc(C(=O)Nc3cccc(C(C)=O)c3)cc2nc1CC,"inconclusive: 25.1 µM [inhibitor, partial curve]",–
COc1cccc(N2C(=O)[C@H]3C(C(=O)c4cnccn4)=NN[C@H]3C2=O)c1,"inconclusive: 39.8 µM [inhibitor, single point]",–
CC(/C=N/N1CCN(c2ccccn2)CC1)=C\c1ccccc1,"inconclusive: 3.98 µM [inhibitor, partial curve]",–
COc1ccccc1NC(=O)CSc1nnc(Cc2cccn2C)n1-c1ccc(F)cc1,"inconclusive: 12.6 µM [inhibitor, partial curve]",–
O=C(O)c1ccc(/C=N/NC(=O)c2ccc(Br)cc2)cc1,"inconclusive: 39.8 µM [inhibitor, single point]",–
COc1cc(/C=N/NC(N)=S)ccc1OCC(=O)Nc1ccc(C)c(C)c1,"inconclusive: 0.891 µM [inhibitor, full curve]",–
CCN(CC)c1ccc(NS(=O)(=O)c2ccc(OC)cc2)cc1,"inconclusive: 15.8 µM [inhibitor, partial curve]",–
COc1ccc(CCN2C(=O)CN(C3CCCCCC3)C(=O)C2c2ccc(Cl)cc2)cc1OC (centres undefined),–,inactive: -9.37%
CC1(C)CC(=O)C=C(NCC2CCCO2)C1 (centres undefined),–,inactive: 6.21%
c1ccc2c(c1)oc1c(Nc3ccc4c(c3)OCO4)ncnc12,"inconclusive: 3.98 µM [inhibitor, full curve, poor fit]",–
CCOc1ccc(N2CC(C(=O)NCc3cccc(C)c3)CC2=O)cc1 (centres undefined),–,inactive: -14.2%
O=C(CCSc1nc(-c2ccco2)cc(C(F)(F)F)n1)Nc1ccc2c(c1)OCO2,"inconclusive: 17.8 µM [inhibitor, partial curve]",–
CCCCOC(=O)CSc1nc(N)c(C#N)c(-c2ccc(OCC)cc2)c1C#N,–,inactive: -4.07%
Cc1ccc(SCc2nc3ccccc3n2CC(=O)Nc2ccccc2)cc1,–,inactive: -11.8%
CCCN1CCN(C(=S)Nc2sc(CC)cc2C(=O)OC)CC1,–,inactive: -18.7%
Cc1ccc(Cl)cc1N1CCN(C(=O)CCc2nnc3n(C)c(=O)c4ccccc4n23)CC1,"inconclusive: 28.2 µM [inhibitor, partial curve, poor fit]",–
Cc1cccc(C)c1OCC(=O)Nc1ccc(N2CCOCC2)cc1,"inconclusive: 20 µM [inhibitor, partial curve]",–
COc1ccccc1-c1nnc(-c2ccc(N3CCOCC3)cc2)o1,"inconclusive: 17.8 µM [inhibitor, partial curve]",–

Compound,Potency,"activity, negative = inhibition"
CCOc1ccccc1-c1nc2c([nH]1)c(=O)n(C)c(=O)n2C,–,inactive: -10.5%
NC(N)=N/N=C/c1ccccc1,–,inactive: 3.41%
COc1cccc(-c2ccc(SCC(=O)N3CCc4ccccc43)nn2)c1,"inconclusive: 8.91 µM [inhibitor, full curve]",–
O=C(CNS(=O)(=O)c1ccccc1F)Nc1ccc(N2CCOCC2)cc1,"inconclusive: 15.8 µM [inhibitor, partial curve]",–
O=C(C1=C(O)C(=O)N(c2ncccn2)C1c1cccc(Cl)c1)c1ccco1 (centres undefined),"inconclusive: 15.8 µM [inhibitor, partial curve]",–
Cc1ccc2c(c1)C1CN(C)CCC1N2S(=O)(=O)c1ccc(Oc2ccc([N+](=O)[O-])cc2)cc1 (centres undefined),"inconclusive: 39.8 µM [inhibitor, single point]",–
COC(=O)/C(=C1/OC(=O)C(c2ccccc2)=C1O)c1ccccc1,"inconclusive: 0.224 µM [inhibitor, full curve, poor fit]",–
CCCCCCSc1nnc2[nH]c(=O)cc(N)n12,–,inactive: 6.63%
O=C(NCCOCCn1c(=O)oc2ccccc21)Nc1ccc(F)cc1F,–,inactive: 2.99%
O=C(Nc1nccs1)c1ccc(Cl)s1,–,inactive: -14.7%
COc1ccc(Nc2nnc(-n3nc(C)cc3C)c3ccccc23)cc1,"inconclusive: 35.5 µM [inhibitor, single point]",–
Cc1cc(C)c2nc(SCCc3ccccc3)nc(C)c2c1,"inconclusive: 31.6 µM [inhibitor, partial curve]",–
COc1cccc(/C=C/C(=O)OCC(=O)Nc2ccc(Cl)cn2)c1,–,inactive: -11.2%
CCc1cc(C(=O)O)c(NC(=O)/C=C/c2ccc(OC)cc2)s1,active: 12.6 µM,–
CCc1nn(-c2ccccc2)c2c1-c1cc(OC)c(OC)cc1C1(N2)C(=O)Nc2ccccc21 (centres undefined),"inconclusive: 7.94 µM [inhibitor, full curve]",–
COc1ccc(/C=C/C(=O)c2ccccc2)c(OC)c1,"inconclusive: 17.8 µM [inhibitor, partial curve]",–
CCOC(=O)Cc1csc(NC(=O)Nc2ccc(OC(F)(F)F)cc2)n1,–,inactive: -22.4%
COc1ccc(N=Cc2c(O)n(-c3ccc(OC)cc3)c(=O)c3ccccc23)cc1,"inconclusive: 17.8 µM [activator, single point]",–
COc1cc(C2C3=C(Nc4nc(N)[nH]c(=O)c42)c2ccccc2C3=O)ccc1O (centres undefined),active: 11.2 µM,–
O=[N+]([O-])/C(C(Cl)=C(Cl)Cl)=C(\Nc1ccc(F)cc1)n1cncn1,"inconclusive: 25.1 µM [inhibitor, partial curve]",–
COc1ccc2c(c1)C(=O)[C@H](O)[C@@H](c1ccc(OC)c(Br)c1)O2,"inconclusive: 31.6 µM [inhibitor, partial curve] and inconclusive: 28.2 µM [inhibitor, single point]",–
COc1cc(-c2nc3ccccc3s2)ccc1O,"inconclusive: 4.47 µM [inhibitor, partial curve]",–
Cc1nc2nc(SCC(=O)c3ccc([N+](=O)[O-])cc3)[nH]c2cc1Br,"inconclusive: 17.8 µM [inhibitor, partial curve]",–

Compound,Potency,"activity, negative = inhibition"
CSc1nnc(C)c(/C=C/Nc2ccc(F)cc2F)n1,active: 25.1 µM,–
Oc1ccc(-c2nc3c4c(ncn3n2)-c2ccccc2CC42CCCC2)cc1,–,inactive: 4.86%
Cc1ccc(-n2nc(C)c3c(C)c(CCC(=O)NCc4ccc(Cl)cc4)c(C)nc32)cc1,–,inactive: 14%
CCCOc1ccc(CN2C(=O)C(=O)c3cccc(C)c32)cc1,active: 17.8 µM,–
CCc1cccc(C)c1Nc1c(-c2ccc(N(C)C)cc2)nc2cnccn12,"inconclusive: 20 µM [inhibitor, partial curve]",–
CCC(=O)NC(c1cccs1)c1cc([N+](=O)[O-])c2cccnc2c1O (centres undefined),"inconclusive: 7.08 µM [inhibitor, partial curve]",–
CC1(c2ccc3c(c2)OCO3)NC(=O)N(CC(=O)Nc2ccc(N3CCOCC3)cc2)C1=O (centres undefined),"inconclusive: 25.1 µM [inhibitor, partial curve]",–
CC(NC(=S)Nc1ccccc1Cl)C(c1ccccc1)N1CCOCC1 (centres undefined),–,inactive: -13.2%
COC(=O)C1(C(C[N+](=O)[O-])c2ccc(C)cc2)C(=O)NCC1c1ccco1 (centres undefined),–,inactive: -9.31%
COc1ccc(CCCOC(Cn2ccnc2)c2ccc(OC)cc2)cc1 (centres undefined),"inconclusive: 3.55 µM [inhibitor, partial curve, poor fit] and inconclusive: 20 µM [inhibitor, single point]",–
Cc1ccc(C2=NNC(C(O)C(O)C(O)C(O)CO)S2)cc1 (centres undefined),"inconclusive: 22.4 µM [inhibitor, partial curve, poor fit]",–
CCOc1ccc(C(=O)NC(=S)Nc2ccc(NC(=O)c3ccco3)c(C)c2)cc1[N+](=O)[O-],"inconclusive: 2.24 µM [inhibitor, partial curve]",–
Cc1ccc(-c2nc(CS(=O)(=O)CC(=O)N3CCN(c4ccccc4)CC3)c(C)o2)cc1,"inconclusive: 22.4 µM [inhibitor, single point]",–
CN1CCN(c2nnc(-c3ccccc3)c(-c3ccccc3)n2)CC1,"inconclusive: 22.4 µM [inhibitor, single point]",–
CN1C(=O)C(=C2CCCCCC2)SC1=S,"inconclusive: 39.8 µM [inhibitor, single point]",–
Cc1ccccc1OCCSc1nc2ccc(NC(=O)c3ccco3)cc2s1,–,inactive: 8.23%
COc1ccc(CCn2c(=N)c(C(=O)NCc3ccco3)cc3c(=O)n4ccccc4nc32)cc1,"inconclusive: 20 µM [inhibitor, partial curve]",–
CC1CCc2noc(NC(=O)c3ccc([N+](=O)[O-])cc3)c2C1 (centres undefined),"inconclusive: 28.2 µM [inhibitor, partial curve]",–
COc1ccccc1OCCNCC(O)COc1cccc2[nH]c3ccccc3c12 (centres undefined),"inconclusive: 22.4 µM [inhibitor, partial curve, poor fit] and inconclusive: 7.94 µM [inhibitor, partial curve]",–
Cc1ccc2oc3nc(C)c(C(=O)Nc4cccc(C(F)(F)F)c4)cc3c(=O)c2c1,"inconclusive: 3.16 µM [inhibitor, full curve, poor fit]",–
COc1ccc(OCC(=O)Nc2cc(-c3nc4ccccc4o3)ccc2Cl)cc1,–,inactive: -0.922%
C=CCSc1nnc(-c2cc3c(-c4ccccc4)nn(C)c3s2)n1C,"inconclusive: 10 µM [inhibitor, partial curve]",–
Cc1ccc(S(=O)(=O)N(C)c2nc3ccccc3[nH]c2=S)cc1,active: 1.12 µM,–
